Data on 56 variants can be found in the RNAGym collection of RNA variant scans (doi:10.7554/elife.90254).

B1: LINE1-mini (parent)
chain: GGCAGAGCUCAACACAGCGUGGCAAAGUGGCUGUGGCUAGACUGCC

Read counts are not given, so values of variants with three or more changes are uncertain.

Variants of B1 are the subject of this data set. The experiment in a line: self-cleavage, relative activity (ratio to wild type); higher = more cleavage; in vitro, sequencing; the parent is a self-cleaving ribozyme.
In the case of GGCAGAGCUCCACACAGCAUGGCAAAGUGGCUGUGGCUAGCCUGCC [A11C G19A A41C], the self-cleavage is 0.04. With GGCAGAGCUCCACACAGCGUGGCCAAGUGGCUCUGGCUAGACUGCC [A11C A24C G33C], the self-cleavage came out at 0.01.

For GGCAGAGCUCCACACAGCGUGGCACAGUGGCUGUGGCUAGUCUGCG [A11C A25C A41U C46G], the self-cleavage turned out to be 0. For GGCAGAGCUCCACACAGCGUGCGAAAGCGGCUGUGGCUAGACUGCC [A11C G22C C23G U28C], the self-cleavage was 0.03.

For the variant GGCAGAGCUCCUCACAGCGUGGCAAAGUGGCUGUGGCGAGACUGCC [A11C A12U U38G], the self-cleavage came to 0. The result for GGCAGAGCUCCACACAGCGUGGCGAAGUGGCUGUGGUUAGACUGAC [A11C A24G C37U C45A] reads 0.01; that for GGCAGAGCUCCACACUGCGUGGCAAAGUGGCUGUGGCUAAACUGCC [A11C A16U G40A], 0. The result for GGCAGAGCUCCACACAGGGUGGCAAAGUGGCUGUGGCUAGACUGAC [A11C C18G C45A] reads 0.02; that for GGCAGAGCUCCACACAGCUUGGCAAACUGGCUGUGGCUAGACUGCC [A11C G19U G27C], 0.02. Take GGCAGAGCUCCACACGGCGUGGCAAAGUGGCUGUGGCUAGACUGCA [A11C A16G C46A]: the self-cleavage came to 0.05.

GGCAGAGCUCCACACAGCGUGACAAAGUGGCUAUGUCUAGACUGCG [A11C G22A G33A G36U C46G]: the self-cleavage was 0.

In the case of GGCAGAGCUCCACACUGUGUGGCAAAGUGGCUGUGGCUAGACUGCC [A11C A16U C18U], the self-cleavage is 0.01. Regarding GGCAGAGCUCCAUACAGCGUGGCAAAGUGGCUUUGGCUAGCCUGCG [A11C C13U G33U A41C C46G], the self-cleavage was found to be 0.01.

On to GGCAGAGCUCCAUACAUCGUGGCACAGAGGCUGUGGCUAGAUUGGC [A11C C13U G17U A25C U28A C42U C45G], for which the self-cleavage came out at 0. On to GGCAGAGCUCCACAUUGCGUGGCUAAGUGGCUGUAGCUAGACUGCC [A11C C15U A16U A24U G35A], for which the self-cleavage is 0.01.

As to GGCAGAGCUCCAGACAGCGUGGCAAAGUUGCUGUGGGUAGAAUGAC [A11C C13G G29U C37G C42A C45A], the self-cleavage amounted to 0. As for GGCAGAGCUCCACACAGCGUGGCAUAGUGGCUGUGGCUAGACUACC [A11C A25U G44A], the figure is 0.08. The result for GGCAGAGCUCCACACAGCGUGGCAAAGUGGCUGUGGCUUGAUUACC [A11C A39U C42U G44A] reads 0.01. As for GGCAGAGCUCCAGACAGCGUGGCAUAGUGGCGGUGGCUAUACUGCC [A11C C13G A25U U32G G40U], the figure is 0.02. GGCAGAGCUCCACACAGCGUCUCAAAGUGGCUAUGGCUAUACUGCC [A11C G21C G22U G33A G40U]: the self-cleavage stood at 0.01. As for GGCAGAGCUCCACACGACGUGGCAUAGUGGCUGUGGCUAGACUGCC [A11C A16G G17A A25U], the figure is 0.01; as for GGCAGAGCUCCACACAUCGUGUCAAAGUGGCUUUGGCUAGUAUGCC [A11C G17U G22U G33U A41U C42A], 0.02. The result for GGCAGAGCUCCACACAUCAUGGCAAAGUGGCUGUGGCUAUACUGCC [A11C G17U G19A G40U] reads 0.

For GGCAGAGCUCCACUCAGCGUUGCAAAGUGGCUGUGUCUAGACUGCC [A11C A14U G21U G36U], the self-cleavage was determined as 0.02. As for GGCAGAGCUCCACACCGCGUGGCAGAGUGGCUGUGGCUAGACUGCC [A11C A16C A25G], the figure is 0.01; as for GGCAGAGCUCCACACAGCGUGGCAAAGUGGCUGUGGCUAGGCUGAA [A11C A41G C45A C46A], 0.02. Turning to GGCAGAGCUCCACACAGCGUGGCCAAGUGGCUGUGGCUAGACUGCG [A11C A24C C46G], the self-cleavage came out at 0.01. As for GGCAGAGCUCCACACUGCGUGGCAAAGUGGCUAUGGCUAGAGUGCC [A11C A16U G33A C42G], the self-cleavage turned out to be 0.01.

As to GGCAGAGCUCCACACUGCGUGGCAAAGUGGUUUUGGCUAGACUGCC [A11C A16U C31U G33U], the self-cleavage came out at 0.01. For GGCAGAGCUCCACACAGCGUGACAAAGUGCCUGUGCCUAGACUUCC [A11C G22A G30C G36C G44U], the self-cleavage amounted to 0.03. The result for GGCAGAGCUCCACACAGAGUGGCCAAGUGGCUGUGGCUAGACUGCC [A11C C18A A24C] reads 0.31. As for GGCAGAGCUCCACAGAGCGUGGCAAAGUGGCUGUGACUAGACUUCC [A11C C15G G36A G44U], the figure is 0.01.

Consider GGCAGAGCUCCACACAGCGUGGCAACGUGGCUCUGGCUAGACUGGC [A11C A26C G33C C45G], for which the self-cleavage was 0.03. As for GGCAGAGCUCCACACAGCGUGGCGAAGUGGCUGUGGCUAGUCUGCC [A11C A24G A41U], the figure is 0.07. For GGCAGAGCUCCACACAGGGUGGCAAACAGGCUGUGGAUCCACUGCC [A11C C18G G27C U28A C37A A39C G40C], the self-cleavage amounted to 0.

Regarding GGCAGAGCUCCACACAGCUUGCCAGAGUGGCUGUGGCUAGACUGCG [A11C G19U G22C A25G C46G], the self-cleavage was found to be 0.07. On to GGCAGAGCUCCACACACCGUGGCAAAGGGGCUGUGGCUAGACUGCC [A11C G17C U28G], for which the self-cleavage is 0.

Take GGCAGAGCUCCACACAGCGUCGCAAAGUGGAUGUGGCUAGACUGCC [A11C G21C C31A]: the self-cleavage came out at 0.02. Consider GGCAGAGCUCCACCCAGCUUGGCAAAGUGGCUGUGGCUAGACUGCC [A11C A14C G19U], for which the self-cleavage came to 0. Turning to GGCAGAGCUCCACACAGCGUGGCAAAGUGGCUGUGGCUAGGAUGCC [A11C A41G C42A], the self-cleavage turned out to be 0.01. The result for GGCAGAGCUCCACACAACGUUUCAAAGUGGCUGUGGCUAGACCGCC [A11C G17A G21U G22U U43C] reads 0; that for GGCAGAGCUCCAUACAGCGUGGCAAAGUGGCUGUGGCUACUCUGCC [A11C C13U G40C A41U], 0.04.

In the case of GGCAGAGCUCCACACAGCGUGGCAAAGUGGCUGUGGCUGGACUGCU [A11C A39G C46U], the self-cleavage came to 0.03. For GGCAGAGCUCCACACAGAUUGGCAAAGUGUCUGUGGCGACACUGCC [A11C C18A G19U G30U U38G G40C], the self-cleavage amounted to 0. As for GGCAGAGCUCCACAUAGCGUGGCAAAGUGGCUGUUGCUAGACUGCC [A11C C15U G35U], the figure is 0.03; as for GGCAGAGCUCCACACACCUUGGCAAAGUGGCUGUGGCUAGACUGCC [A11C G17C G19U], 0.01. Regarding GGCAGAGCUCCAGACAUCGUGGCAACGUGGCUUUGCCUAACCUGCC [A11C C13G G17U A26C G33U G36C G40A A41C], the self-cleavage came out at 0.01.

On to GGCAGAGCUCCACACAGCGUGGCAAAGUGGCUGUGGAUAGCCUGCC [A11C C37A A41C], for which the self-cleavage was 0.01. GGCAGAGCUCCACGCAGCGUGACAAAGUGUCCGUGGCUAGACUGCC [A11C A14G G22A G30U U32C]: the self-cleavage is 0.02. On to GGCAGAGCUCCACACAGCGUGGCAACGUGGCUAUGGCUAGACUGCC [A11C A26C G33A], for which the self-cleavage was 0.03. For the variant GGCAGAGCUCCACACAUCGGGGCAAAGUGGCUGUGGAUAGACUGCC [A11C G17U U20G C37A], the self-cleavage came to 0.01.

In the case of GGCAGAGCUCCACACAGCGUGGCUAAGUGGCUGUGGCUAGACUCCC [A11C A24U G44C], the self-cleavage was 0.03. GGCAGAGCUCCAGUCAGCGUGGCAAAGUGCCUGUGGCUAGACUGCC [A11C C13G A14U G30C]: the self-cleavage was 0.

Take GGCAGAGCUCCACACAGCGUGGGAAAGUGGCUGUGGCUUGACUGCC [A11C C23G A39U]: the self-cleavage turned out to be 0.02.

With GGCAGAGCUCCACAGAGCGUGGCAAAGUGGCGGUGGCUAGACUGCC [A11C C15G U32G], the self-cleavage came to 0. For the variant GGCAGAGCUCCACACAGCGUGGCAAAGUGGUUGUGGCUAAACAGCC [A11C C31U G40A U43A], the self-cleavage was found to be 0.02.
